# Assay results reported in the supplement of paper PMC3334620.
# Whole data set: some 33,000 sequences, median “E-score (-0.5 to 0.5)” near -0.041, cut for the highest 2% near 0.37. Some of the results follow.
# Molecular target: T1, Ecm22 (UniProt Q05958)
# T1 sequence: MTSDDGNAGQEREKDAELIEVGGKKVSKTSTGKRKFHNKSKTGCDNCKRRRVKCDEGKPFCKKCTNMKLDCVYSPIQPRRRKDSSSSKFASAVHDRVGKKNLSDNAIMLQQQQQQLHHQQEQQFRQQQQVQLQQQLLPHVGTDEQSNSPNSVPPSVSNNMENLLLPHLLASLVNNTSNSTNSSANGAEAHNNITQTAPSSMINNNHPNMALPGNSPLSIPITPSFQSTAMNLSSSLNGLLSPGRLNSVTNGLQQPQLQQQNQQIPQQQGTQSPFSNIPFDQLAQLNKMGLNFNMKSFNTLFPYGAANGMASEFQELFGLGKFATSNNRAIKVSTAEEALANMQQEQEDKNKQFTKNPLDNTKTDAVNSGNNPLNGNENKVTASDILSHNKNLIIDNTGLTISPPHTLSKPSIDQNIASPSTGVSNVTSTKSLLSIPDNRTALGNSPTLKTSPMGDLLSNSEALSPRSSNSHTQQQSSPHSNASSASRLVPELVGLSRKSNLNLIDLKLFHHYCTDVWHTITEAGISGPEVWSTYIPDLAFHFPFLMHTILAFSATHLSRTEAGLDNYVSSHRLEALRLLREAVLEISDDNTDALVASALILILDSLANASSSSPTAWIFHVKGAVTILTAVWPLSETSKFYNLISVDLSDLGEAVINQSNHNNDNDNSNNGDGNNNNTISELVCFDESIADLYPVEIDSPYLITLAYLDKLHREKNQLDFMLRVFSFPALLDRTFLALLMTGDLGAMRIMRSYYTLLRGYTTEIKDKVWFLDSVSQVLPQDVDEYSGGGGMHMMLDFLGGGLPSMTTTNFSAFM
# Assay: PBM E-score (8-mer binding enrichment) (E-score (-0.5 to 0.5)); higher = stronger / more preferred TF binding; most listed sequences are background and not binding sites
# Conditions: protein concentration: 200 nM; construct: GST-full length
# Outline: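 PURExpress in vitro transcription/translation supplied GST-tagged yeast transcription factors, either full-length or DNA-binding domain. Applied at about 100-200 nM to universal all-10-mer Agilent arrays double-stranded by primer extension, the bound protein was detected with fluorescent anti-GST. E-scores, modified Wilcoxon-Mann-Whitney statistics, were given by the Universal PBM Analysis Suite to ungapped eight-base words pooled with their reverse complements after masliner normalisation.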
row,Sequence,PBM E-score
1,TCGCAAGA,0.0321
2,TCCCCTAA,-0.157
3,CTTGACGC,-0.152
4,GTCGGAGA,0.0362
5,ACTGCTGC,-0.164
6,CTGCGTAA,0.0728
7,ACCAATAA,-0.0726
8,CACCCAAA,-0.0261
9,CTTTTGCA,-0.153
10,AAATTCAG,0.158
11,CCATAGGA,-0.28
12,TCCAGGAA,-0.135
13,ACCTTACG,0.272
14,GGATATTA,-0.0495
15,CAACTCAG,-0.17
16,AGATGCAT,-0.0899
17,CATGATGC,-0.059
18,ATAGCTTA,-0.0124
19,AACGTCGG,0.17
20,ATGGCTAG,-0.0274
21,GCAGCCCC,-0.0279
22,ATGGCGCG,-0.174
23,CGTGTGCC,-0.122
24,AGGAGACC,-0.248
25,CCGTGCGC,0.0144

row,Sequence,PBM E-score
1,ATTTTCAG,-0.0614
2,TCGACAAA,0.178
3,GCTAGCCC,-0.379
4,ATCCTCTA,-0.175
5,GGTAAGAA,-0.0741
6,AGTAATGC,-0.0773
7,AACCGAGA,0.312
8,GTAAACCA,0.0466
9,CTAGCGGA,-0.138
10,CACGCGGG,0.0145
11,CGAGGCTC,0.24
12,ATTCGTAG,0.325
13,CTCCCCAC,-0.241
14,GGCAGGCC,-0.199
15,CCCCCCGC,-0.098
16,GCTGTGCA,-0.0109
17,CAAAGGTG,-0.207
18,GGCCAGCA,-0.296
19,CCAGGTTC,-0.143
20,AATCCTAT,-0.0603
21,CCATCAGC,-0.0522
22,CCCAATCC,-0.164
23,GGAGACAA,0.088
24,CTTTCCTC,-0.19
25,GCGACCCA,-0.0112

row,Sequence,PBM E-score
1,AGAGGATA,-0.0783
2,AGTGGTAC,0.164
3,ATGATCCG,0.0821
4,GTTCCGGA,0.176
5,CCTGCCAG,-0.298
6,ACGTTCCG,0.259
7,ATGCAGCG,-0.176
8,AAAACGAC,0.363
9,AGAATAGG,0.13
10,AGCTTCGC,0.111
11,TATTGTGA,-0.0113
12,CGTCCTAG,-0.202
13,AAAGACTA,-0.0696
14,ATCTAATA,0.193
15,CCCCATCA,-0.255
16,CAGCTATC,-0.19
17,ACTAGACA,-0.163
18,CGTAGATC,0.204
19,ATCCCCAT,-0.141
20,CCGTACGC,0.324
21,ATGTATGC,0.0457
22,GCGGGAGC,-0.092
23,AAGCCGGT,-0.132
24,CAAGGGAG,0.062
25,AGCCATTC,-0.0808

row,Sequence,PBM E-score
1,CTTGTCAA,-0.224
2,AATAATAT,0.106
3,AGGAGAAG,-0.0156
4,AGTACGAC,0.443
5,GACATCTA,0.11
6,CACGTGTA,0.113
7,CCACATGG,-0.101
8,CGAGGCCG,0.209
9,AAGTCTGA,-0.252
10,CTAGGGAC,-0.323
11,CAGCCATA,-0.0379
12,GTGTCTCA,-0.0959
13,CACAGAAC,0.00026
14,GAGGTCCA,-0.209
15,CAAACTGG,-0.127
16,ACGGGGAT,0.241
17,GCAGTAGC,-0.182
18,AACGAATA,0.371
19,CACCCTCG,0.217
20,AGGCAATA,-0.197
21,TTGGAAAA,-0.0386
22,CTTGGGTC,-0.199
23,TCGAGTAA,0.0861
24,AGCTGTTG,-0.22
25,ATGAGAAG,-0.105

row,Sequence,PBM E-score
1,AGGCGCCT,-0.0378
2,ACGCGAGC,0.29
3,ATGGTTTC,-0.0126
4,CAATTGGA,-0.231
5,ACCGGGCG,0.0784
6,AGTACTGA,-0.111
7,ATGCTAGC,0.0414
8,AATCAGTC,-0.101
9,ACTATCAG,-0.157
10,CAGACCGC,0.113
11,AGATCTCG,0.211
12,CCAAAAAC,0.0377
13,CACATTCA,-0.239
14,AAGCAAGA,-0.156
15,ACCATTGA,0.00707
16,CTTATAGA,-0.11
17,GACAATCC,-0.0332
18,TAAGTCAA,-0.0996
19,GTATCGTA,0.421
20,TCGACCGA,0.0211
21,ACCACGCC,0.00537
22,GCCTACGA,0.256
23,CGGCCCGA,-0.00302
24,CAACCCCC,-0.3
25,CAACACGA,0.162

row,Sequence,PBM E-score
1,CGAATAAG,0.217
2,CAAGTCCA,-0.304
3,AACGCAAG,0.0162
4,GCTGCTTA,0.0355
5,GACTAACC,-0.167
6,ACATAGTG,0.0572
7,CCAATTGG,0.159
8,CCGTTTTA,0.185
9,CGCTCGAA,0.0161
10,GACAAGTA,0.0842
11,ACAAACCG,0.0719
12,AGAGCTTC,-0.177
13,AAACCACA,-0.0246
14,AGGTCCTG,-0.0668
15,ACGAAACG,0.411
16,GGTGGATA,-0.0465
17,CACTCAAC,0.0404
18,TAGATAAA,0.057
19,CACCGGGG,-0.166
20,GATACTGC,-0.00778
21,ATCTGAAA,-0.034
22,AGACGTCC,-0.23
23,CCCTGTAG,-0.28
24,CGGTGGGA,-0.00705
25,CCCACAAC,-0.123

row,Sequence,PBM E-score
1,ATAGGCCA,0.107
2,CACTCGCA,0.133
3,AAAACTCT,-0.179
4,ATTCACTG,-0.249
5,AGCGTGCA,0.0259
6,CTAATGGC,-0.207
7,GAATCGGC,0.0339
8,GATGGACA,-0.124
9,CACCCATA,-0.058
10,CAAAGACC,-0.0983
11,GTTCAAAA,0.0321
12,CCAGGTTA,-0.0408
13,CTATGATC,-0.0914
14,ATAACTAG,-0.171
15,GACGCACA,-0.0996
16,ACCCTGAG,-0.198
17,ACCGGCTC,-0.0882
18,ACACCTCA,-0.201
19,ACTCTCGG,0.0866
20,TCCGAAAA,0.00572
21,ACGTGACC,-0.00344
22,GTGAGAGA,-0.3
23,CATCTGAG,-0.169
24,AGGGGTGC,-0.19
25,ACGCAGCA,0.033

row,Sequence,PBM E-score
1,GATAAGCA,0.0947
2,AGGCACAC,-0.208
3,CCATTAAA,-0.0951
4,AGAAGATA,-0.0582
5,CGTTTATA,0.426
6,CTCCGCAA,-0.0477
7,CACTGGCC,-0.219
8,CCTCGAGG,-0.114
9,CTTCCGGC,-0.0914
10,CGATACTA,0.216
11,ATGATTGC,0.095
12,AGCTTCGG,-0.00259
13,TGATGGCA,-0.12
14,CACTATCG,0.0969
15,CCGCATCG,0.0485
16,TACGAGAA,0.462
17,TCGCGAAA,0.306
18,GCTTTTAA,-0.0344
19,CTAAAATC,-0.174
20,TGAAATAA,-0.0508
21,CGCGTGAC,0.0429
22,AACAGGAG,-0.19
23,GTGGTACA,0.0101
24,CAACGGGA,0.155
25,ACCGCTTG,0.00183

row,Sequence,PBM E-score
1,AGATTTCC,-0.0478
2,AAGGCAAA,-0.146
3,ACGTTCTA,0.0664
4,CGACATCC,0.0868
5,GCCGACTA,0.123
6,CTGGTCTA,-0.18
7,AGTAGAAT,-0.0978
8,GCCGGAGA,0.107
9,CTGCGCTA,-0.137
10,CCATGACG,-0.00209
11,GCCTCCAA,-0.263
12,AGACGAGC,0.211
13,CTTTATAC,0.23
14,ACAAGTAA,-0.00762
15,CGCCAGAC,0.00345
16,CAGACTCC,-0.2
17,GAATACCC,0.154
18,CCGTCATC,-0.126
19,ATGATTCA,-0.0797
